A collection of fitness landscapes (doi:10.1016/j.celrep.2020.107928)
Whole data set: some 81,000 sequences, median “one-hybrid fitness for binding parS DNA” near -0.17, cut for the highest 2% near 0.51. This is one part of the list.

B1: Caulobacter ParB omega fusion; a variant is named by its letters at X, in order, B8GW30 (parent)
chain: MESVVVGEPGMSEGRRGLGRGLSALLGEVDAAPAQAPGEQLGGSREAPIEILQRNPDQPRRTFREEDLEDLSNSIREKGVLQPILVRPSPDTAGEYQIVAGERAWRAAQRAGLKTVPIMVRELDDLAVLEIGIIENVQRADLNVLEEALSYKVLMEKFERTQENIAQTIGKSXSHVANXMRLLXLPDEVQSYLVSGELTAXHARAIAAAADPVALAKQIIEGGLSVRETEALARKAPNLSAGKSKGGRPPRVKDTDTQALESDLSSVLGLDVSIDHRGSTGTLTITYATLEQLDDLCNRLTRGI

Variants of: B1
Experiment: one-hybrid fitness for binding parS DNA (scaled: cognate 1, non-cognate 0); higher = stronger binding
Details: with parS DNA site
Summary of the method: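 Pre- and post-selection plasmids were Illumina-sequenced, three replicate libraries were pooled, and any variant with under 10 reads was removed. The libraries were Caulobacter ParB with four specificity codons randomised, selected in E. coli USO through a HIS3 reporter whose site is 19 bp from the promoter. Cells grew 48 hours at 37°C on M9 without histidine, with 0.1 mM IPTG and 5 mM 3-AT. Fitness is the log change in variant-to-wild-type read ratio, rescaled against cognate and non-cognate.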

Row | Variant | one-hybrid fitness for binding parS DNA
1 | ASSF | ≤ 0.2
2 | QNNR | ≤ 0.2
3 | RFTA | 0.541
4 | QMAK | ≤ 0.2
5 | TPFL | ≤ 0.2
6 | EPMD | ≤ 0.2
7 | TFAT | ≤ 0.2
8 | GNME | ≤ 0.2
9 | AEQG | ≤ 0.2
10 | LDSA | ≤ 0.2
11 | ATNL | ≤ 0.2
12 | YVLS | ≤ 0.2
13 | VTEC | ≤ 0.2
14 | QGEP | ≤ 0.2
15 | TVVP | ≤ 0.2
16 | AHNV | ≤ 0.2
17 | RSYM | 0.288
18 | YNQP | ≤ 0.2
19 | PVEW | ≤ 0.2
20 | ANHE | ≤ 0.2
21 | EDRV | ≤ 0.2
22 | QLMH | ≤ 0.2
23 | PPDP | ≤ 0.2
24 | RNVL | ≤ 0.2
25 | PEQK | ≤ 0.2

Row | Variant | one-hybrid fitness for binding parS DNA
26 | PGAF | ≤ 0.2
27 | LYIC | ≤ 0.2
28 | TYNT | ≤ 0.2
29 | RQRI | ≤ 0.2
30 | KLRD | ≤ 0.2
31 | NALE | ≤ 0.2
32 | VVNN | ≤ 0.2
33 | EMIL | ≤ 0.2
34 | TMYW | ≤ 0.2
35 | TWTF | ≤ 0.2
36 | AQTT | ≤ 0.2
37 | EYKS | ≤ 0.2
38 | QPSD | ≤ 0.2
39 | HPGC | ≤ 0.2
40 | VEGP | ≤ 0.2
41 | PEPE | ≤ 0.2
42 | WCRR | ≤ 0.2
43 | YHPY | ≤ 0.2
44 | EQSG | ≤ 0.2
45 | QFSV | ≤ 0.2
46 | NQHQ | ≤ 0.2
47 | QSKY | ≤ 0.2
48 | PKLR | ≤ 0.2
49 | GSST | ≤ 0.2
50 | FHRT | ≤ 0.2

Row | Variant | one-hybrid fitness for binding parS DNA
51 | TGMG | ≤ 0.2
52 | YWSP | ≤ 0.2
53 | INPS | ≤ 0.2
54 | RNMG | 0.819
55 | VCPG | ≤ 0.2
56 | SSGP | ≤ 0.2
57 | AYQQ | ≤ 0.2
58 | EHAC | ≤ 0.2
59 | HGHL | ≤ 0.2
60 | QKIC | ≤ 0.2
61 | ECMT | ≤ 0.2
62 | NADT | ≤ 0.2
63 | PGHN | ≤ 0.2
64 | LVAR | ≤ 0.2
65 | QYHN | ≤ 0.2
66 | HPLT | ≤ 0.2
67 | VQAV | ≤ 0.2
68 | KVRR | ≤ 0.2
69 | WPFF | ≤ 0.2
70 | WYAI | ≤ 0.2
71 | DTIR | ≤ 0.2
72 | ATAP | ≤ 0.2
73 | SQGC | ≤ 0.2
74 | RLKT | 0.799
75 | TYFT | ≤ 0.2

Row | Variant | one-hybrid fitness for binding parS DNA
76 | FLVG | ≤ 0.2
77 | TTLN | ≤ 0.2
78 | VYAS | ≤ 0.2
79 | VKNF | ≤ 0.2
80 | QDEG | ≤ 0.2
81 | HYKF | ≤ 0.2
82 | PNLL | ≤ 0.2
83 | AVER | ≤ 0.2
84 | PRFR | ≤ 0.2
85 | SRND | ≤ 0.2
86 | VRES | 0.213
87 | CCTF | ≤ 0.2
88 | WKLS | ≤ 0.2
89 | RIWS | 1.05
90 | LHSR | ≤ 0.2
91 | MSSS | ≤ 0.2
92 | IPTL | ≤ 0.2
93 | KPTS | ≤ 0.2
94 | TPAC | ≤ 0.2
95 | RDLD | ≤ 0.2
96 | DRTG | ≤ 0.2
97 | VKRF | ≤ 0.2
98 | YHHL | ≤ 0.2
99 | PYSN | ≤ 0.2
100 | SKEG | ≤ 0.2

Row | Variant | one-hybrid fitness for binding parS DNA
101 | CSLT | ≤ 0.2
102 | WAMG | ≤ 0.2
103 | FGRS | ≤ 0.2
104 | KRMM | ≤ 0.2
105 | EAAR | ≤ 0.2
106 | HYIS | ≤ 0.2
107 | PDPG | ≤ 0.2
108 | FGQL | ≤ 0.2
109 | RRQA | 0.699
110 | FLLP | ≤ 0.2
111 | LANG | ≤ 0.2
112 | NNAY | ≤ 0.2
113 | PRGE | ≤ 0.2
114 | EHPR | ≤ 0.2
115 | SFMG | ≤ 0.2
116 | AWHC | ≤ 0.2
117 | KPRY | ≤ 0.2
118 | CHDY | ≤ 0.2
119 | VQRA | ≤ 0.2
120 | REHR | ≤ 0.2
121 | DWCR | ≤ 0.2
122 | ATAV | ≤ 0.2
123 | NGSF | ≤ 0.2
124 | REAI | ≤ 0.2
125 | LTTD | ≤ 0.2

Row | Variant | one-hybrid fitness for binding parS DNA
126 | HYSK | ≤ 0.2
127 | RNPQ | ≤ 0.2
128 | EHIT | ≤ 0.2
129 | VVKT | ≤ 0.2
130 | TTFI | ≤ 0.2
131 | VTTD | ≤ 0.2
132 | ELNV | ≤ 0.2
133 | VEFS | ≤ 0.2
134 | QDPV | ≤ 0.2
135 | GKCR | ≤ 0.2
136 | MKDR | ≤ 0.2
137 | EPIK | ≤ 0.2
138 | AENG | ≤ 0.2
139 | RVSI | ≤ 0.2
140 | VFST | ≤ 0.2
141 | GWRR | ≤ 0.2
142 | SEKN | ≤ 0.2
143 | PKQN | ≤ 0.2
144 | HVVV | ≤ 0.2
145 | HNVC | ≤ 0.2
146 | RIRG | 0.955
147 | EDRA | ≤ 0.2
148 | GSSP | ≤ 0.2
149 | HDTT | ≤ 0.2
150 | KHEA | ≤ 0.2

Row | Variant | one-hybrid fitness for binding parS DNA
151 | ERNR | ≤ 0.2
152 | APTD | ≤ 0.2
153 | RVWT | 0.886
154 | LWYN | ≤ 0.2
155 | ETNG | ≤ 0.2
156 | CHQS | ≤ 0.2
157 | QEQW | ≤ 0.2
158 | SSSI | ≤ 0.2
159 | MWMK | ≤ 0.2
160 | KMNV | ≤ 0.2
161 | QCLC | ≤ 0.2
162 | NDNS | ≤ 0.2
163 | SLKM | ≤ 0.2
164 | CDHG | ≤ 0.2
165 | PMSG | ≤ 0.2
166 | FIHY | ≤ 0.2
167 | PPRR | ≤ 0.2
168 | MIGV | ≤ 0.2
169 | VERT | ≤ 0.2
170 | VLKM | ≤ 0.2
171 | SAER | ≤ 0.2
172 | QMLY | ≤ 0.2
173 | TWRG | ≤ 0.2
174 | TGSS | ≤ 0.2
175 | LVQV | ≤ 0.2

Row | Variant | one-hybrid fitness for binding parS DNA
176 | SMRN | ≤ 0.2
177 | CYLS | ≤ 0.2
178 | GPLP | ≤ 0.2
179 | VLPE | 0.313
180 | LRMV | ≤ 0.2
181 | CWNG | ≤ 0.2
182 | CHPY | ≤ 0.2
183 | PQEG | ≤ 0.2
184 | DALK | ≤ 0.2
185 | TSKL | ≤ 0.2
186 | SYTN | ≤ 0.2
187 | QTGF | ≤ 0.2
188 | MGAR | ≤ 0.2
189 | TRSV | ≤ 0.2
190 | RFFC | 0.674
191 | VKPS | ≤ 0.2
192 | SPVL | ≤ 0.2
193 | CYRP | ≤ 0.2
194 | KHLE | ≤ 0.2
195 | SVVT | ≤ 0.2
